# In the supplement of paper PMC8728848:
# Some of the results follow.
# B1: PitA (Streptococcus oralis), G3F8D8 (protein)
# chain: MNIRFDFKKVQIIARRLVTLLAILFLCAPISLLNADSTTEPQTTLHKTITPISGQDDKYELSLDITSKLGTETQTDPLDVVLVADLSGSMQNQDVQSFDGRTISRIDALKNTLRGTNGRKGLIDTILSNSNNRLSMVGFGGKIDNKKVDQYWDGNKWRLFRPYWPYERMTKYYDGVSPWDDANTILGWSNNARAAKTAVYNMSIAGGNSIGTESGIGTGTNIGAGLTLANQLMGSARSNAKKVVILLSDGFANMVYDANGYTIYNYNNEDPNIETAPQWFWDRLNNNLNSLSYSLAPTLDGFYSIKFRYSNNVDSITSLQYYMRQHNASIPNEIFSANDEDQLRDSFKDITDKILPLGIHHVSIKDVLSKYVQLLPNGSSEFRVVKEKDGSSEILIENQVTFDTKTTSEGLVEVTAKFSPNYSLEDGARYVLKFTVTSSQEALDAIAGDKKLEAGDAEGSDVNKLYSNKGASVTYSYGIGNSQTKTKEYSDNPTFKPSDPLTVPVEVEWQGVTGARTVITADQPSNVELKLVQKNKNGGSDNQDYRKTNVNVSKNVSNETRNFEKVAKGYQYDLIAPDVPAFTKEIKNVGTESKPSFKVIYKQLPSLTIKKVLEAENNLNKEFRIKVKLTSPDSKPLNGTFGEITVVNGEAEIRVEKRKRWEGILSYLPRGTHYKVEEEAASTNGYHVTYENQEGDLNKDETSIVTNHKLPSLSVTKKVTGVFANLLKSFKITINIRDAQNSPLNGTYTATVNNKRTPLQFTNGRASIDLNKDQTIKIYGLPLDSHYTVEEESNSSRGYQVSYENQEGKLDGDKSATVTNNKNSVPETGVDFLSSTLMLGIILPLGGIFFTILLGYLVVHRRK
# What was measured:
# Assay in all cases: glycan array binding signal (z-score within array); higher = stronger binding
# Conditions in all cases: glycan notation: IUPAC condensed, linker removed
# [1] = target: Fuc(a1-2)Gal6S(b1-4)Glc
# How it was run: (§1)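 Glycan array binding is given as a within-array Z-score, which can be read as non-binding when negative. The arrays, 3228 of them, came from the Consortium for Functional Glycomics database and were retained only where the protein sequence was available. Z-scores were averaged across arrays of the same protein sequence at different concentrations or buffers and across linkers.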
# [2] = target: Fuc(a1-2)Gal6S(b1-4)Glc6S
# How it was run: as §1
# [3] = target: Fuc(a1-2)Gal6S(b1-4)GlcNAc
# How it was run: as §1
# [4] = target: Fuc(a1-2)[Gal(a1-3)]Gal
# How it was run: as §1
# [5] = target: Fuc(a1-2)[Gal(a1-3)]Gal(b1-3)GalNAc
# How it was run: as §1
# [6] = target: Fuc(a1-2)[Gal(a1-3)]Gal(b1-3)GlcNAc
# How it was run: as §1
# [7] = target: Fuc(a1-2)[Gal(a1-3)]Gal(b1-3)GlcNAc(b1-2)Man(a1-3)[Fuc(a1-2)[Gal(a1-3)]Gal(b1-3)GlcNAc(b1-2)Man(a1-6)]Man(b1-4)GlcNAc(b1-4)GlcNAc
# How it was run: as §1
# [8] = target: Fuc(a1-2)[Gal(a1-3)]Gal(b1-3)GlcNAc(b1-2)Man(a1-3)[Fuc(a1-2)[Gal(a1-3)]Gal(b1-3)GlcNAc(b1-2)Man(a1-6)]Man(b1-4)GlcNAc(b1-4)[Fuc(a1-6)]GlcNAc
# How it was run: as §1
# [9] = target: Fuc(a1-2)[Gal(a1-3)]Gal(b1-3)GlcNAc(b1-3)GalNAc
# How it was run: as §1
# [10] = target: Fuc(a1-2)[Gal(a1-3)]Gal(b1-4)Glc
# How it was run: as §1
# [11] = target: Fuc(a1-2)[Gal(a1-3)]Gal(b1-4)GlcNAc
# How it was run: as §1
# [12] = target: Fuc(a1-2)[Gal(a1-3)]Gal(b1-4)GlcNAc(b1-2)Man(a1-3)[Fuc(a1-2)[Gal(a1-3)]Gal(b1-4)GlcNAc(b1-2)Man(a1-6)]Man(b1-4)GlcNAc(b1-4)GlcNAc
# How it was run: as §1
# [13] = target: Fuc(a1-2)[Gal(a1-3)]Gal(b1-4)GlcNAc(b1-2)Man(a1-3)[Fuc(a1-2)[Gal(a1-3)]Gal(b1-4)GlcNAc(b1-2)Man(a1-6)]Man(b1-4)GlcNAc(b1-4)[Fuc(a1-6)]GlcNAc
# How it was run: as §1
# [14] = target: Fuc(a1-2)[Gal(a1-3)]Gal(b1-4)GlcNAc(b1-3)GalNAc
# How it was run: as §1
# [15] = target: Fuc(a1-2)[Gal(a1-3)]Gal(b1-4)GlcNAc(b1-6)GalNAc
# How it was run: as §1
# [16] = target: Fuc(a1-2)[Gal(a1-3)]Gal(b1-4)[Fuc(a1-3)]Glc
# How it was run: as §1
# [17] = target: Fuc(a1-2)[Gal(a1-3)]Gal(b1-4)[Fuc(a1-3)]GlcNAc
# How it was run: as §1
# [18] = target: Fuc(a1-2)[Gal(a1-3)]Gal(b1-4)[Fuc(a1-3)]GlcNAc(b1-3)GalNAc
# How it was run: as §1
# [19] = target: Fuc(a1-2)[Gal(a1-4)]Gal(b1-4)GlcNAc
# How it was run: as §1
# [20] = target: Fuc(a1-2)[GalNAc(a1-3)]Gal
# How it was run: as §1
# [21] = target: Fuc(a1-2)[GalNAc(a1-3)]Gal(b1-3)GalNAc(a1-3)[Fuc(a1-2)]Gal(b1-4)GlcNAc
# How it was run: as §1
# [22] = target: Fuc(a1-2)[GalNAc(a1-3)]Gal(b1-3)GlcNAc
# How it was run: as §1
# [23] = target: Fuc(a1-2)[GalNAc(a1-3)]Gal(b1-3)GlcNAc(b1-2)Man(a1-3)[Fuc(a1-2)[GalNAc(a1-3)]Gal(b1-3)GlcNAc(b1-2)Man(a1-6)]Man(b1-4)GlcNAc(b1-4)GlcNAc
# How it was run: as §1
# [24] = target: Fuc(a1-2)[GalNAc(a1-3)]Gal(b1-3)GlcNAc(b1-2)Man(a1-3)[Fuc(a1-2)[GalNAc(a1-3)]Gal(b1-3)GlcNAc(b1-2)Man(a1-6)]Man(b1-4)GlcNAc(b1-4)[Fuc(a1-6)]GlcNAc
# How it was run: as §1
# [25] = target: Fuc(a1-2)[GalNAc(a1-3)]Gal(b1-3)GlcNAc(b1-3)GalNAc
# How it was run: as §1
# [26] = target: Fuc(a1-2)[GalNAc(a1-3)]Gal(b1-3)GlcNAc(b1-6)GalNAc
# How it was run: as §1
# [27] = target: Fuc(a1-2)[GalNAc(a1-3)]Gal(b1-4)Glc
# How it was run: as §1
# [28] = target: Fuc(a1-2)[GalNAc(a1-3)]Gal(b1-4)GlcNAc
# How it was run: as §1
# [29] = target: Fuc(a1-2)[GalNAc(a1-3)]Gal(b1-4)GlcNAc(b1-2)Man(a1-3)[Fuc(a1-2)[GalNAc(a1-3)]Gal(b1-4)GlcNAc(b1-2)Man(a1-6)]Man(b1-4)GlcNAc(b1-4)GlcNAc
# How it was run: as §1
# [30] = target: Fuc(a1-2)[GalNAc(a1-3)]Gal(b1-4)GlcNAc(b1-2)Man(a1-3)[Fuc(a1-2)[GalNAc(a1-3)]Gal(b1-4)GlcNAc(b1-2)Man(a1-6)]Man(b1-4)GlcNAc(b1-4)[Fuc(a1-6)]GlcNAc
# How it was run: as §1
# [31] = target: Fuc(a1-2)[GalNAc(a1-3)]Gal(b1-4)GlcNAc(b1-3)Gal(b1-4)GlcNAc
# How it was run: as §1
# [32] = target: Fuc(a1-2)[GalNAc(a1-3)]Gal(b1-4)GlcNAc(b1-3)Gal(b1-4)GlcNAc(b1-3)Gal(b1-4)GlcNAc
# How it was run: as §1
# [33] = target: Fuc(a1-2)[GalNAc(a1-3)]Gal(b1-4)GlcNAc(b1-3)GalNAc
# How it was run: as §1
# [34] = target: Fuc(a1-2)[GalNAc(a1-3)]Gal(b1-4)[Fuc(a1-3)]GlcNAc
# How it was run: as §1
# [35] = target: Fuc(a1-2)[GalNAc(a1-3)]Gal(b1-4)[Fuc(a1-3)]GlcNAc(b1-3)GalNAc
# How it was run: as §1
# [36] = target: Fuc(a1-2)[GalNAc(a1-4)]Gal(b1-4)GlcNAc
# How it was run: as §1
# [37] = target: Fuc(a1-2)[GalNAc(b1-3)]Gal
# How it was run: as §1
# [38] = target: Fuc(a1-3)GlcNAc
# How it was run: as §1
# [39] = target: Fuc(a1-3)[Gal(b1-4)]Glc6S
# How it was run: as §1
# [40] = target: Fuc(a1-3)[Gal(b1-4)]GlcNAc
# How it was run: as §1
# [41] = target: Fuc(a1-3)[Gal(b1-4)]GlcNAc(b1-2)Man
# How it was run: as §1
# [42] = target: Fuc(a1-3)[Gal(b1-4)]GlcNAc(b1-2)Man(a1-3)[Fuc(a1-3)[Gal(b1-4)]GlcNAc(b1-2)Man(a1-6)]Man(b1-4)GlcNAc(b1-4)GlcNAc
# How it was run: as §1
# [43] = target: Fuc(a1-3)[Gal(b1-4)]GlcNAc(b1-2)Man(a1-3)[Fuc(a1-3)[Gal(b1-4)]GlcNAc(b1-2)Man(a1-6)]Man(b1-4)GlcNAc(b1-4)[Fuc(a1-6)]GlcNAc
# How it was run: as §1
# [44] = target: Fuc(a1-3)[Gal(b1-4)]GlcNAc(b1-3)Gal(b1-3)[Fuc(a1-4)]GlcNAc
# How it was run: as §1
# [45] = target: Fuc(a1-3)[Gal(b1-4)]GlcNAc(b1-3)GalNAc
# How it was run: as §1
binder,measurement,setting,value
B1,glycan array binding signal (z-score),[1],-0.191
same,glycan array binding signal (z-score),[2],0.561
same,glycan array binding signal (z-score),[3],-0.316
same,glycan array binding signal (z-score),[4],-0.728
same,glycan array binding signal (z-score),[5],-0.394
same,glycan array binding signal (z-score),[6],-0.561
same,glycan array binding signal (z-score),[7],-0.478
same,glycan array binding signal (z-score),[8],0.49
same,glycan array binding signal (z-score),[9],-0.049
same,glycan array binding signal (z-score),[10],-0.267
same,glycan array binding signal (z-score),[11],-0.451
same,glycan array binding signal (z-score),[12],0.369
same,glycan array binding signal (z-score),[13],1.33
same,glycan array binding signal (z-score),[14],-0.491
same,glycan array binding signal (z-score),[15],0.131
same,glycan array binding signal (z-score),[16],-0.569
same,glycan array binding signal (z-score),[17],0.176
same,glycan array binding signal (z-score),[18],0.976
same,glycan array binding signal (z-score),[19],-0.469
same,glycan array binding signal (z-score),[20],-0.392
same,glycan array binding signal (z-score),[21],-0.095
same,glycan array binding signal (z-score),[22],-0.017
same,glycan array binding signal (z-score),[23],-0.473
same,glycan array binding signal (z-score),[24],0.068
same,glycan array binding signal (z-score),[25],4.75
same,glycan array binding signal (z-score),[26],-0.334
same,glycan array binding signal (z-score),[27],-0.125
same,glycan array binding signal (z-score),[28],-0.444
same,glycan array binding signal (z-score),[29],0.106
same,glycan array binding signal (z-score),[30],-0.085
same,glycan array binding signal (z-score),[31],-0.715
same,glycan array binding signal (z-score),[32],0.475
same,glycan array binding signal (z-score),[33],0.248
same,glycan array binding signal (z-score),[34],1.54
same,glycan array binding signal (z-score),[35],5.3
same,glycan array binding signal (z-score),[36],-0.66
same,glycan array binding signal (z-score),[37],-0.246
same,glycan array binding signal (z-score),[38],-0.562
same,glycan array binding signal (z-score),[39],0.703
same,glycan array binding signal (z-score),[40],-0.293
same,glycan array binding signal (z-score),[41],-0.061
same,glycan array binding signal (z-score),[42],-0.712
same,glycan array binding signal (z-score),[43],3.17
same,glycan array binding signal (z-score),[44],-0.287
same,glycan array binding signal (z-score),[45],2.79
